Measurements: publication PMC6919601, “Identification of Plasmodium dipeptidyl aminopeptidase allosteric inhibitors by high throughput screening” (PLoS ONE, 2019)
About 230 (0.21%) of roughly 110,000 compounds showed an effect of 50% or more. This is one part of the list.
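Note: 30 min substrate incubation versus DMSO and 10 µM JCP410 controls.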

These molecules were tested against DPAP1 (Plasmodium falciparum, UniProt Q8IIJ9) (assay: primary screen, percent inhibition; read by cleavage of a fluorogenic dipeptide substrate; higher = more effect of the substance).
DPAP1, sequence (Q8IIJ9 whole entry, looked up): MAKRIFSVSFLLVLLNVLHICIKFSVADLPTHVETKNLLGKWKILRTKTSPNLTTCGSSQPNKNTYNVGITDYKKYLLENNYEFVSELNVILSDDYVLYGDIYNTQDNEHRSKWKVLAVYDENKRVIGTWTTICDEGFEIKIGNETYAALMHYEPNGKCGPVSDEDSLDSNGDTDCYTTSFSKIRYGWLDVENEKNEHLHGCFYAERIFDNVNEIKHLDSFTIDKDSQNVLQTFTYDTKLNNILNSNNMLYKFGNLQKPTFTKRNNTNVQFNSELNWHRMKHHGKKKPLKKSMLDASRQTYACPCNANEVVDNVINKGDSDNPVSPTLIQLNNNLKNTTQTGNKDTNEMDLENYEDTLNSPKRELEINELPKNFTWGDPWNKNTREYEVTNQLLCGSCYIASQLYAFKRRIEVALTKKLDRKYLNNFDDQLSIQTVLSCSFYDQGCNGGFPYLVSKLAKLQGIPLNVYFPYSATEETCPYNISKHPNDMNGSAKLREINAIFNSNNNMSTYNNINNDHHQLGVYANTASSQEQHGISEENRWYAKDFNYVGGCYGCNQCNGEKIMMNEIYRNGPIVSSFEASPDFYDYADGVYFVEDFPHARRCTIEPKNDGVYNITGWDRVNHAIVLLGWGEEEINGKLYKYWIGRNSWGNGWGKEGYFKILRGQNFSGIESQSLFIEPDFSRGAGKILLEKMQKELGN
Design: species or system P. falciparum D10 trophozoite lysates; single well
`COc1ccc(NC2CC3CCC2C3)cc1OC` (stereo not shown) was tested, and the “% Inhibition @ 10 uM” value was -3.6%.
For `COc1ccc(CN2CCN(C(=O)c3ccco3)CC2)c(OC)c1`, the “% Inhibition @ 10 uM” value was 3.95%.
In the case of `COc1cc(C2C(C#N)=C(N)OC3=C2C(=O)CCC3)ccc1OCc1cccc(F)c1` (stereo not shown), the “% Inhibition @ 10 uM” value was -11.5%.
For `COc1ccc(-c2c3c(=O)n(C)c(=O)n(C)c3cn2-c2ccccc2O)cc1`, the “% Inhibition @ 10 uM” value was 4.54%.
For `O=C1NC(c2ccc(Br)cc2)=N/C1=C/c1ccccc1`, the “% Inhibition @ 10 uM” value was -0.591%.
In the case of `CC(C)C[C@H](NC(=O)c1ccc2c(c1)CCC2C)C(=O)NCC#N` (stereo partly shown), the “% Inhibition @ 10 uM” value was -3.69%.
In the case of `O=C(N/C(=C\c1ccco1)C(=O)N1CCOCC1)c1ccccc1Cl`, the “% Inhibition @ 10 uM” value was 20.2%.
In the case of `CCN(CC)C(=O)C1CCCN(Cc2ccc(O)cc2)C1` (stereo not shown), the “% Inhibition @ 10 uM” value was 4.66%.
For `CCS(=O)(=O)N1CCC(C(=O)N2CCc3ccccc3C2)CC1`, the “% Inhibition @ 10 uM” value was 2.18%.
`NS(=O)(=O)c1ccc(NC(=O)CNS(=O)(=O)c2cc(Cl)ccc2Cl)cc1` was tested, and the “% Inhibition @ 10 uM” value was -0.473%.
For `OCC1CCCN(Cc2ccc(Br)cc2)C1` (stereo not shown), the “% Inhibition @ 10 uM” value was 2.46%.
In the case of `COc1ccc(-c2cc(C(F)(F)F)c3c(N)c(C(=O)NC4CC4)sc3n2)cc1OC`, the “% Inhibition @ 10 uM” value was 24.4%.
With `CC(C)C[C@H](NC(=O)OCc1ccccc1)C(=O)N[C@@H](CC(C)C)C(=O)c1nc2ccccc2o1` the “% Inhibition @ 10 uM” value was -3.04%.
In the case of `Cc1ccc2c(c1)-c1cc(C)nn1C(c1ccc3c(c1)OCO3)N2` (stereo not shown), the “% Inhibition @ 10 uM” value was 2.49%.
With `CCCCOc1ccc(C2c3c(oc4ccccc4c3=O)C(=O)N2c2nncs2)cc1` (stereo not shown) the “% Inhibition @ 10 uM” value was 0.415%.
`O=[N+]([O-])c1cc(C(F)(F)F)ccc1-n1ccnc1` was tested, and the “% Inhibition @ 10 uM” value was 3.25%.
`COc1ccc(CNc2nc3c(S(=O)(=O)c4ccc(C)c(C)c4)nnn3c3ccsc23)cc1` was tested, and the “% Inhibition @ 10 uM” value was -4.34%.
For `CCOC(=O)N1CCN(Cc2nc3c(c(=O)[nH]c(=O)n3C)n2CCN2CCOCC2)CC1`, the “% Inhibition @ 10 uM” value was 3.59%.
For `O=C(c1ccc(N2C(=O)CCC2=O)cc1)N1CCCCCC1`, the “% Inhibition @ 10 uM” value was -0.891%.
For `Cc1[nH]cnc1CSCCCCCc1ccccc1`, the “% Inhibition @ 10 uM” value was -4.12%.
With `Cc1ccc(C=C2C(=O)OC(C)(C(C)(C)C)OC2=O)cc1` (stereo not shown) the “% Inhibition @ 10 uM” value was -9.24%.
With `CC1(C)OC(=O)C(/C=N/C(Cc2c[nH]c3ccccc23)C(=O)O)=C(O)O1` (stereo not shown) the “% Inhibition @ 10 uM” value was 3.66%.
With `Fc1ccccc1N1CCN(Cc2c(F)cccc2F)CC1` the “% Inhibition @ 10 uM” value was -0.446%.
For `O=C(O)CSc1cccc2cccnc12`, the “% Inhibition @ 10 uM” value was 1.96%.
For `Cc1cccn2c(=O)c3cc(C(=O)NCc4ccccc4)n(C)c3nc12`, the “% Inhibition @ 10 uM” value was 1.08%.
With `O=C(NCc1cccnc1)c1ccc(F)cc1` the “% Inhibition @ 10 uM” value was 1.91%.
With `CCc1cc2c(s1)SC(c1ccc([N+](=O)[O-])cc1)NC2=O` (stereo not shown) the “% Inhibition @ 10 uM” value was -2.51%.
`CCOc1cc(C)c(S(=O)(=O)Nc2ccccn2)cc1C` was tested, and the “% Inhibition @ 10 uM” value was 4.94%.
For `N#CCc1ccc(NC(=O)Cc2ccccc2)cc1`, the “% Inhibition @ 10 uM” value was 3.21%.
For `CS(=O)(=O)C1=NSC2=NC(=O)/C(=C\c3ccc(O)cc3)C(=N)N21`, the “% Inhibition @ 10 uM” value was -1.58%.
`COc1cccc(CNCc2ccc(Br)cc2)c1OC` was tested, and the “% Inhibition @ 10 uM” value was -2.22%.
In the case of `COc1cnn(-c2ccccc2)c(=O)c1O`, the “% Inhibition @ 10 uM” value was 2.22%.
In the case of `O=C(c1nc2ccccc2o1)C(CCc1ccccc1)NC(=O)C(CC1CCCCC1)C(=O)NCc1ccccc1` (stereo not shown), the “% Inhibition @ 10 uM” value was -0.214%.
`Fc1ccc2c(c1)C1C=CCC1C(c1ccncc1)N2` (stereo not shown) was tested, and the “% Inhibition @ 10 uM” value was -1.37%.
`N#C/C(=C\Nc1ccccc1-c1ccccc1)C(=O)NC(=O)Cc1ccccc1` was tested, and the “% Inhibition @ 10 uM” value was -2.45%.
`Cc1ccc(C(=O)Nc2c(C)cccc2C)s1` was tested, and the “% Inhibition @ 10 uM” value was -2.19%.
With `COc1ccc(OCCCCCCS)cc1` the “% Inhibition @ 10 uM” value was 3.83%.
For `CCOc1ccc(/C=C2\CC/C(=C\C(C)C)C2=O)cc1`, the “% Inhibition @ 10 uM” value was 8.24%.
In the case of `O=C(Nc1ccc([N+](=O)[O-])cc1)c1cccc(S(=O)(=O)N2CCCCC2)c1`, the “% Inhibition @ 10 uM” value was 6.33%.
For `N#CC1=C(N)OC2=C(C(=O)c3ccccc3C2=O)C1c1cccnc1` (stereo not shown), the “% Inhibition @ 10 uM” value was 4.51%.
For `Cc1ccc(NC(=O)c2ccc3nc4ccccc4nc3c2)cc1`, the “% Inhibition @ 10 uM” value was -3.77%.
`O=c1oc2c3c(c(Cl)cc2c2c1CCC2)OCN(Cc1ccc2c(c1)OCO2)C3` was tested, and the “% Inhibition @ 10 uM” value was -4.39%.
`O=C(Nc1cccnc1)C1CCN(S(=O)(=O)c2cccc3cccnc23)CC1` was tested, and the “% Inhibition @ 10 uM” value was -1.76%.
With `Cc1ccc(NC(=O)c2ccc(Cn3cc(Cl)cn3)o2)c(C)c1` the “% Inhibition @ 10 uM” value was -4.4%.
`COc1ccc2c(c1)cc1c(=O)n(CC(=O)NCc3cccc(OC)c3OC)nc(C)n12` was tested, and the “% Inhibition @ 10 uM” value was 99.1%.
For `S=C(Nc1ccccc1)N1CCCN1c1ccccc1`, the “% Inhibition @ 10 uM” value was -0.744%.
With `CC(C)CC(NC(=O)c1cccc(N(C)C)c1)C(=O)NCC#N` (stereo not shown) the “% Inhibition @ 10 uM” value was -2.35%.
With `Cc1ccc(C2C3=C(CC(c4ccco4)CC3=O)N=C3C2=C(O)c2ccccc23)cc1` (stereo not shown) the “% Inhibition @ 10 uM” value was 5.3%.
For `CC1(C)CC(=O)C2=C(C1)c1c(ccc3ccccc13)NC2c1c(F)cccc1Cl` (stereo not shown), the “% Inhibition @ 10 uM” value was -4.24%.
With `Cc1ccccc1N1C(=O)C(Cl)=C(N(C)c2ccccc2)C1=O` the “% Inhibition @ 10 uM” value was -2.88%.
For `CCN(CC)c1ccc(CN2CCCC(C(N)=O)C2)cc1` (stereo not shown), the “% Inhibition @ 10 uM” value was -1.41%.
With `O=C(/C=C\Nc1ccc2c(c1)OCO2)c1ccc2ccccc2c1` the “% Inhibition @ 10 uM” value was -2.24%.
`CNC(=O)CNC(=O)C1O[C@@H]2OC(C)(C)O[C@@H]2[C@H]2OC(C)(C)O[C@@H]12` (stereo partly shown) was tested, and the “% Inhibition @ 10 uM” value was 0.273%.
In the case of `Cc1ccc(-n2ncc3c(N(C)C4CCCCC4)ncnc32)c(C)c1`, the “% Inhibition @ 10 uM” value was 9.64%.
For `CN1C(=O)c2ccc(NC(=O)c3ccc(Br)o3)cc2C1=O`, the “% Inhibition @ 10 uM” value was 0.389%.
For `O=S(=O)(Nc1cccc(-c2cn3ccsc3n2)c1)c1ccc(Cl)c(Cl)c1`, the “% Inhibition @ 10 uM” value was 3.05%.
In the case of `O=C(Nc1cccc2cccnc12)c1cncc(Br)c1`, the “% Inhibition @ 10 uM” value was 0.161%.
In the case of `CCCc1nnc(NC(=O)Cc2coc3ccc(CC)cc23)s1`, the “% Inhibition @ 10 uM” value was 2.62%.
In the case of `CCCc1cc(O)n2nc(NCc3ccc(OC)cc3)nc2n1`, the “% Inhibition @ 10 uM” value was -9.95%.
`O=c1ccoc2cc(OCc3ccccc3)ccc12` was tested, and the “% Inhibition @ 10 uM” value was 0.323%.
For `CCN1CCCC1CNC(=O)c1cc2c(s1)-c1ccc(Cl)cc1SC2` (stereo not shown), the “% Inhibition @ 10 uM” value was -6.33%.
In the case of `CCOC(=O)C1=C(CNCCCOC)NC(=O)NC1c1ccc(C)cc1` (stereo not shown), the “% Inhibition @ 10 uM” value was 0.708%.
In the case of `CC(C)C[C@H](NC(=O)c1ccc(N2CCN(C)CC2)cc1)C(=O)NCCCN1CCCC1`, the “% Inhibition @ 10 uM” value was -4.72%.
In the case of `OCC1OC2OC3(CCCCC3)OC2C2OC3(CCCCC3)OC12` (stereo not shown), the “% Inhibition @ 10 uM” value was -2.97%.
